The list shows a part of the results. Sequences were assembled here from the parent chain. Values near 0.05 are background.
B1: TEV protease; numbered along this chain (parent)
chain: MGESLFKGPRDYNPISSSICHLTNESDGHTTSLYGIGFGPFIITNKHLFRRNNGTLVVQSLHGVFKVKDTTTLQQHLVDGRDMIIIRMPKDFPPFPQKLKFREPQREERICLVTTNFQTKSMSSMVSDTSCTFPSGDGIFWKHWIQTKDGQCGSPLVSTRDGFIVGIHSASNFTNTNNYFTSVPKNFMELLTNQEAQQWVSGWRLNADSVLWGGHKVFMVKPEEPFQPVKEATQL

Variants of: B1
Test: raw area under fraction-flipped curve 0-4 h after induction (AUC4h, not background-subtracted), DNA-recorder readout of cleavage of the substrate (dimensionless); higher = more cleavage of the substrate by the protease variant
Details: temperature: 34 °C; time window: 0-4 h after rhamnose induction
Protocol: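 In vivo DNA recorder in E. coli TOP10(DE3) ΔrhaA at 34 °C. Each TEVp single-site mutant (parent TEVp 0) is paired with a single-site variant of the 7-mer TEVs (canonical ENLYFQ|S). The substrate sits between flexible linkers in a Bxb1-sfGFP-TEVs-SsrA fusion, so cleavage stabilises Bxb1 and speeds flipping of a recombination array, read by NGS. The value is the raw area under the fraction-flipped curve over 0-4 h after rhamnose induction (AUC4h), with ≥20 reads per time point. It is not background-subtracted; inactive controls average about 0.047.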
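Further: Bxb1 expression induced with 0.2% (w/v) L-rhamnose at OD600 near 0.5, cultures sampled hourly, flipped fraction per protease–substrate barcode pair counted by paired-end Illumina sequencing.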

Row | Variant | area with substrate ENLYAQS | area with substrate ENLYCQS | area with substrate ENLYDQS | area with substrate ENLYEQS | area with substrate ENLYGQS | area with substrate ENLYHQS | area with substrate ENLYIQS | area with substrate ENLYKQS | area with substrate ENLYLQS | area with substrate ENLYMQS | area with substrate ENLYNQS | area with substrate ENLYPQS | area with substrate ENLYQQS | area with substrate ENLYRQS | area with substrate ENLYSQS | area with substrate ENLYTQS | area with substrate ENLYYQS | area with substrate ENLYWQS | area with substrate ENLYVQS
1 | K46R | 0.0741 | 0.0804 | 0.0478 | 0.0701 | 0.0696 | 0.069 | 0.123 | 0.0585 | 0.078 | 0.0624 | 0.0619 | 0.0575 | 0.0555 | 0.0591 | 0.0543 | 0.0826 | 0.0681 |  | 
2 | K46F | 0.0602 |  | 0.0713 | 0.0718 | 0.0692 | 0.0581 | 0.0561 | 0.0624 | 0.0623 |  |  | 0.0607 |  | 0.0529 | 0.054 |  |  | 0.0563 | 
3 | G138Q | 0.0628 |  |  | 0.0691 |  |  |  | 0.0597 |  |  | 0.0432 | 0.0938 |  |  | 0.0676 |  |  |  | 
4 | V229H | 0.072 | 0.111 |  | 0.0427 | 0.0357 | 0.0478 |  |  |  | 0.101 | 0.0896 | 0.0771 |  |  |  | 0.0759 |  |  | 0.102
5 | E189V | 0.074 | 0.0408 | 0.0531 | 0.0592 |  | 0.0661 | 0.124 | 0.0255 | 0.0584 |  | 0.0745 | 0.0638 |  | 0.0582 | 0.074 |  | 0.0559 | 0.0727 | 0.0802
6 | Q74G | 0.0657 | 0.0677 | 0.0668 | 0.0689 |  | 0.0647 |  | 0.0613 |  | 0.0841 | 0.0614 | 0.0797 | 0.0604 | 0.0582 | 0.0676 |  |  | 0.083 | 
7 | V183I | 0.0678 |  | 0.0539 | 0.0675 | 0.0745 | 0.0589 |  | 0.0405 | 0.0813 | 0.0835 | 0.064 |  |  |  | 0.0795 |  | 0.0499 | 0.101 | 0.106
8 | R10I | 0.0621 |  | 0.0622 | 0.0534 | 0.0719 | 0.0712 |  | 0.0514 |  |  | 0.0656 | 0.0576 | 0.0595 | 0.0675 | 0.0822 |  |  | 0.0652 | 
9 | C20E | 0.0508 |  | 0.0419 | 0.0383 | 0.0415 | 0.0447 | 0.0322 | 0.0111 | 0.0493 | 0.0444 | 0.0555 | 0.0398 | 0.046 | 0.0493 | 0.0427 |  | 0.06 | 0.0655 | 0.0468
10 | V157R | 0.0542 |  |  | 0.0473 | 0.0636 | 0.0648 |  | 0.0574 |  | 0.0517 | 0.0604 | 0.0534 | 0.0528 | 0.0573 | 0.0634 | 0.0436 |  | 0.0599 | 0.0875
11 | G166S | 0.0519 |  | 0.0499 | 0.0636 | 0.0616 | 0.051 | 0.0416 | 0.0582 |  | 0.0455 | 0.0497 | 0.0603 | 0.055 |  | 0.047 | 0.0448 | 0.0519 | 0.0413 | 
12 | A232P | 0.0739 |  | 0.0485 | 0.0606 |  | 0.0692 |  |  |  |  | 0.0763 | 0.116 |  | 0.0807 | 0.0631 | 0.0953 |  | 0.0952 | 0.133
13 | K221N | 0.0929 | 0.0665 | 0.0578 | 0.0615 | 0.063 | 0.0561 | 0.104 | 0.0464 |  | 0.0914 | 0.0449 | 0.065 | 0.0462 | 0.0653 | 0.0382 |  |  | 0.0524 | 0.117
